Experimental data published in publication PMC6212790.
The other results are listed elsewhere or left out. At the low end of the ranking, values are background and their order means little.

Target: T1, GST-Rok-C97-191 (UniProt O34857)
T1 sequence: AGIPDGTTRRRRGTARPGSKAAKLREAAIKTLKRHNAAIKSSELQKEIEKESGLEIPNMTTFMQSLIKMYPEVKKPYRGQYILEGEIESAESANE
Test: protein binding microarray;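 further: rank score from −0.5 (least bound) to 0.5 (best bound)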
Details: Rok is a gene silencer of Bacillus subtilis; high values mean tight binding; most listed sequences are background and not binding sites; double strand, one strand shown

Sequence	binding signal
ATCCGCTC	-0.164 E-score
CACTCTCG	-0.0178 E-score
AGGGAGGG	-0.231 E-score
ATATGCTC	-0.0124 E-score
CGATCAAA	0.085 E-score
AAGCTCGC	-0.201 E-score
GCAAACAC	-0.0826 E-score
CAAATACG	0.127 E-score
ACAACCGG	-0.0576 E-score
ACTCGATC	0.1 E-score
AGAACATA	0.13 E-score
GCGAAGCA	-0.238 E-score
CACGTAGG	-0.15 E-score
AACCGAGG	-0.246 E-score
AACCAAAT	0.153 E-score
AATGTAGA	0.359 E-score
ATCGCAAT	0.132 E-score
AGCCTGAT	-0.00651 E-score
ACCGCCCT	0.00575 E-score
TAAAATGA	0.174 E-score
CAAGGAGG	-0.291 E-score
ATAGCTAT	0.402 E-score
AGCACAGA	-0.182 E-score
GTGCGAAA	-0.101 E-score
CAAGTGGG	-0.0514 E-score

Sequence	binding signal
CCCATTAG	-0.0527 E-score
GTCCAAAA	-0.0954 E-score
ACCCGGTC	-0.167 E-score
CGATAATA	0.157 E-score
GACGCATC	-0.11 E-score
ATGCCCAC	-0.129 E-score
GTCTCATA	0.00498 E-score
CATGCGGC	-0.201 E-score
ACTGGATA	0.117 E-score
ATGCAAGG	0.0151 E-score
ACGTACAC	-0.0132 E-score
AATTTTAA	0.19 E-score
CCGCTTCC	-0.128 E-score
GCGCAAGC	-0.257 E-score
CGTGAACC	-0.0997 E-score
GAGTGCCC	-0.108 E-score
TAGCTTAA	0.0561 E-score
AGACACAC	-0.113 E-score
GCTGTACC	-0.0769 E-score
TCCATGAA	-0.102 E-score
CATAGGCG	-0.0494 E-score
TAACGTTA	0.339 E-score
ACAACCAG	-0.00331 E-score
AGTGGCAC	-0.117 E-score
CTTAGAGA	-0.0725 E-score

Sequence	binding signal
AGCCTTTC	-0.151 E-score
CTGGCCTA	-0.239 E-score
ACCAAAGT	-0.0178 E-score
GTTATGCA	0.256 E-score
ACCATATG	0.229 E-score
ATACATAA	0.273 E-score
CGGTTGTC	-0.0619 E-score
CCCAGGAG	-0.231 E-score
AACTTGAA	0.0361 E-score
CAGGCAGC	-0.3 E-score
ACTTTTGG	-0.12 E-score
ACATTGGA	0.129 E-score
ATTACTCC	0.158 E-score
ACTATATG	0.283 E-score
CGCGTTTA	0.0562 E-score
AGTGGGAC	-0.00867 E-score
CAGGCCCG	-0.256 E-score
CAATTATC	0.239 E-score
CACTAGAC	0.00587 E-score
CTCAGTTC	0.108 E-score
GAGTCGGA	-0.353 E-score
AAGTTAAA	0.219 E-score
AACGGTGT	0.011 E-score
CATGATAA	0.2 E-score
GTATTCAC	-0.00894 E-score

Sequence	binding signal
CAGCGCTC	-0.258 E-score
ATGCCAGC	0.00272 E-score
GATAAGGA	-0.0856 E-score
CCGCTAAC	-0.0411 E-score
ACTCTCGG	0.16 E-score
TAAGTGGA	-0.0333 E-score
TCAACGCA	0.129 E-score
GCTCGGGA	-0.223 E-score
CAGGGGCC	-0.294 E-score
CATACGAA	-0.0328 E-score
AGTAAAGC	-0.16 E-score
AGAAGGAG	-0.224 E-score
AAACAGAT	0.0906 E-score
ACGCATCA	-0.0338 E-score
CCTTACAC	-0.00833 E-score
AAAGTGTT	0.0235 E-score
GCCTGACC	-0.299 E-score
CAAGATGC	-0.274 E-score
ACAAGGTG	-0.0602 E-score
AAGTGTGC	-0.0368 E-score
GGTGAGCA	-0.19 E-score
AAGACACT	-0.113 E-score
ACGAGGCC	-0.312 E-score
GCCCTGAC	-0.242 E-score
CTCATGGA	-0.0916 E-score

Sequence	binding signal
ACTGCTGA	0.128 E-score
ATTCCAAT	-0.0161 E-score
GGAGCTTA	-0.00123 E-score
GGATTGCC	-0.199 E-score
CGGATCCG	-0.189 E-score
CACCTCTC	-0.298 E-score
AAATCCGC	0.00233 E-score
GTACTGTA	0.219 E-score
CCAGAGGA	-0.0798 E-score
AGTACCTA	0.304 E-score
ACTGTGTG	0.0591 E-score
CAAGAACC	-0.0441 E-score
ATTATGAC	0.0185 E-score
ATCAGTAC	0.0531 E-score
AGCAGTTA	0.0574 E-score
GTGAGTCA	-0.166 E-score
ATCCCGCG	-0.108 E-score
ACGCCTGA	0.0317 E-score
GGGGTGGA	-0.258 E-score
CACATCCC	-0.234 E-score
ACCCACTG	-0.0641 E-score
GAAGCCCA	-0.375 E-score
AACGTCGC	0.0434 E-score
AAACATCT	-0.0723 E-score
AAATGACT	0.0718 E-score

Sequence	binding signal
ATTGATTA	0.0927 E-score
ATGAACCA	0.0625 E-score
ATATAAAG	0.135 E-score
GTCAAAGA	-0.117 E-score
CGGCCAAG	-0.0871 E-score
AGTCGAAG	-0.131 E-score
GGAAGTGA	-0.218 E-score
GACTTTCC	-0.0014 E-score
CTCGTAAG	0.0442 E-score
TGGACCCA	-0.261 E-score
ATGCCCAT	-0.129 E-score
CGCAATTA	0.109 E-score
ACCCAAAC	-0.0226 E-score
GCTCTCAC	-0.256 E-score
ACAGACTG	-0.188 E-score
AACCCTTA	-0.0957 E-score
AGATTTAT	0.275 E-score
AAAATGAA	0.0348 E-score
CAGCGAGA	-0.18 E-score
TATAGTAA	0.346 E-score
ACAATAAG	0.0445 E-score
TGGTGACA	0.0101 E-score
CAGCTTGG	-0.301 E-score
AAAGCAAA	0.0518 E-score
AAGGGTGA	-0.318 E-score

Sequence	binding signal
CAACGGGC	-0.244 E-score
CATACAGC	-0.208 E-score
TTAAGTAA	0.0756 E-score
AATTGTTA	0.234 E-score
CTACCGCC	0.136 E-score
GACCGCTC	-0.227 E-score
AACGATGG	0.0144 E-score
TATCAATA	0.331 E-score
ATCAGTGC	-0.0896 E-score
CCTGGAAA	0.000252 E-score
ATCGGGAG	-0.07 E-score
ATGTTAAA	0.276 E-score
AGCCTTTG	-0.191 E-score
AAATACCG	0.37 E-score
TTCGTAAA	0.212 E-score
ATAACATA	0.264 E-score
ATATGGTG	0.159 E-score
CATCCGGC	-0.262 E-score
CCGAGGCC	-0.171 E-score
GTAACTAC	0.417 E-score
ATCCAGAG	-0.139 E-score
GCGCAGAC	-0.152 E-score
